Test results from PMC4336329 (PLoS ONE, 2015).
Among all 310,000 compounds or so, about 2,200 (0.71%) showed an effect of 50% or more. The effect is printed as a negative number. The list shows a part of the results.

target: human ether-à-go-go-related gene (hERG) potassium channel (human, UniProt Q12809); assay: primary screen, population patch clamp on CHO cells stably expressing hERG
Sequence (Q12809 whole entry, looked up): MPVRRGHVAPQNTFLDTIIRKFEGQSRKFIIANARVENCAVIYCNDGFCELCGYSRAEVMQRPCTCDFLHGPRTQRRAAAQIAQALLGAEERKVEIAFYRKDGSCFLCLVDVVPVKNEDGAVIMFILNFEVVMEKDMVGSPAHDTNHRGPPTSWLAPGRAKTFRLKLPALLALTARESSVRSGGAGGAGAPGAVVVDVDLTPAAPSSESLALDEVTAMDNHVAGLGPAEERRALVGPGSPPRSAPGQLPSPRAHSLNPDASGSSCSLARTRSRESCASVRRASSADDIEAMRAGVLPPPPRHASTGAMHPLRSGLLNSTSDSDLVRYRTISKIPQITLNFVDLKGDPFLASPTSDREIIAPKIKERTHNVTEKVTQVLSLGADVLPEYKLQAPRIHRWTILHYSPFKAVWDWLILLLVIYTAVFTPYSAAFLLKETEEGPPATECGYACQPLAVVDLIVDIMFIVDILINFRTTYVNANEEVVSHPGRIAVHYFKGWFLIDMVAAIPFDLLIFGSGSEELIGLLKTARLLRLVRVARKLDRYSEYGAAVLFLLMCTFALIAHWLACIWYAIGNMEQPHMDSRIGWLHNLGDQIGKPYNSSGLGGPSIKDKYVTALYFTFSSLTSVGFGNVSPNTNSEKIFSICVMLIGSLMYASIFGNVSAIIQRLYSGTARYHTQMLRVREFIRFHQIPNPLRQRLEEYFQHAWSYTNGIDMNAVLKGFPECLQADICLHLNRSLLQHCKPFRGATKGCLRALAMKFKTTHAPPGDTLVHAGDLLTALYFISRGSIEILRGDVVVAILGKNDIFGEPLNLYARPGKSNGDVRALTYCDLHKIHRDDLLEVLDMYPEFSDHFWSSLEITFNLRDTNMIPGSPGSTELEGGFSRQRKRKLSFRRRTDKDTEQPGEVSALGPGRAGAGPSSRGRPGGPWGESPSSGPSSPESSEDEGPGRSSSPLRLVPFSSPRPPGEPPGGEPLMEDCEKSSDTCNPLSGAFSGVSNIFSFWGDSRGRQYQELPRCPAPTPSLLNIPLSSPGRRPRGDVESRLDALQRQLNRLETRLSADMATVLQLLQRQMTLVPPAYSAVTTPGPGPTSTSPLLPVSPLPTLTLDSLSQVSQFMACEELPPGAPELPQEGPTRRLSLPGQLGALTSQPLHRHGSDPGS

SMILES | hERG current change (%, negative = inhibition) at 1uM [%]
COc1ccc(CC(=O)Nc2ccc3nc(C)sc3c2)cc1OC | 6.17
O/N=C/c1ccccc1OCc1ccccc1F | 7.63
CCOc1nc(CC)nc(NC(=O)NS(=O)(=O)c2ccccc2Cl)n1 | 14.9
COc1ccc(C(=O)NCCN2CCCC2)cc1.Cl | 11
CC(C)(C)c1ccc(C(=O)NNc2ncccc2-n2cccc2)cc1 | 14.4
Cc1csc(NC(=O)C2CCCN(S(=O)(=O)c3ccc4c(c3)oc(=O)n4C)C2)n1 (stereo not drawn) | 8.68
COc1cc(C(=O)NC2CC(C)(C)NC(C)(C)C2)cc(OC)c1OC | 18.5
O=C(Nc1ncnc2c1ncn2C1OC(COC(=O)c2ccccc2)C(F)C1O)c1ccccc1 (stereo not drawn) | 10.1
COc1ccc(CNC(=O)C[C@H]2C(=O)N(CCc3ccccc3)C[C@@H]2Cc2ccccc2)cc1 | -2.82
Cc1ccc(C)c(Cn2c(=O)c3c(nc4n3CCN4Cc3ccco3)n(C)c2=O)c1 | -0.256
O=CN1CCN(C(C(=O)NC2CCCCC2)c2ccc(Cl)cc2)CC1 (stereo not drawn) | -3.84
CCOC(=O)Cn1c(=NC(=O)CN2C(=O)CCC2=O)sc2cc(S(N)(=O)=O)ccc21 | 16.8
Cc1[nH]n(-c2ccccc2)c(=O)c1CCOC(=O)c1cccc(C(F)(F)F)c1 | 14.7
COc1ccc(NC(=S)NC2CCCC2)c(OC)c1 | 12.3
COC(=O)c1ccc(NC(=O)CCN2C(=O)NC(C)(C)C2=O)cc1 | 6.67
O=C(CCC(=O)N1CCOCC1)NCCc1ccccc1 | 8.81
CC1CCN(C(=O)CSc2nnc(-c3cccnc3)o2)CC1 | 11.1
Cc1ccc(S(=O)(=O)N2CCN(C(=O)COC(=O)CSc3ccccc3)CC2)c(C)c1 | 13.7
O=C(CN1CCCc2ccccc21)N/N=C/c1c(O)ccc2ccccc12 | 6.26
COc1cccc(-c2nc(CS(=O)(=O)CC(=O)N3CCCCC3)c(C)o2)c1 | 6.82
COc1cccc(/C=N/NC(=O)C(=O)N2CCCC2)c1O | 1.73
COc1ccc(C2OC(=O)CC2C(=O)NCc2ccc(F)cc2)cc1OC (stereo not drawn) | 5.36

SMILES | hERG current change (%, negative = inhibition) at 1uM [%]
CC(C)(C)OC(=O)NCCCCC1=CC2=CC(=O)C(C)(O)C(=O)C2=CO1 (stereo not drawn) | 8.59
Cc1cc(C)cc(C(=O)NC(CC(N)=O)c2ccc(N3CCN(c4ccccc4)CC3)c([N+](=O)[O-])c2)c1 (stereo not drawn) | 11.4
CCCSc1nc(-n2ncc(C#N)c2N)c2c3c(sc2n1)CCC(C)C3 (stereo not drawn) | 6.14
CCN(CC)C(=O)CNC(=O)c1nn(-c2ccc(OC)c(Cl)c2)c(=O)c2ccccc12 | 11.4
Cc1ccc2c(c1)C(c1ccccc1)N(C(=O)c1ccccc1[N+](=O)[O-])CC(=O)N2 (stereo not drawn) | 3.69
CCc1cc(CNC(=O)CC2C(=O)NCCN2Cc2c(F)cccc2Cl)on1 (stereo not drawn) | 8.38
Cc1ccc(N/N=C(/Sc2nnnn2-c2ccccc2)C(=O)c2ccccc2)cc1 | 9.95
Cn1nc(-c2ccccc2F)c2cc(C(=O)N3CCN(C(=O)c4ccco4)CC3)sc21 | -5.1
O=C1c2ccccc2N2C(=O)c3ccccc3C2N1O (stereo not drawn) | 21.3
O=C(c1ccc(S(=O)(=O)N2CCOCC2)cc1)N(c1ccc(F)cc1)C1C=CS(=O)(=O)C1 (stereo not drawn) | -2.37
COc1ccc(N(C)S(=O)(=O)c2cccc(C(=O)Nc3ccc(-n4cnnn4)cc3)c2)cc1 | 7.38
Cc1cc(Cl)ccc1NC(=O)CSc1n[nH]c(N)n1 | 11.1
COc1cc(/C=N/NC(=O)Cn2nc([N+](=O)[O-])cc2C)cc(Br)c1OCc1ccccc1 | 14.7
Cc1[nH]c2ccccc2c1CCN(Cc1cccs1)C(=S)Nc1ccccc1 | 16.8
OCCN(Cc1ccccc1)C(=S)Nc1ccc(F)cc1 | 13.5
CCCCOP(=O)(c1ccc(N(C)C)cc1)C(O)c1ccc(OC)cc1 (stereo not drawn) | -1.55
COC(=O)C1=C(C)N(c2ccccc2)/C(=C/c2cccs2)C1=O | 10.9
CCOCCCNS(=O)(=O)c1ccc2c(c1)oc(=O)n2CC(=O)OCC | 10.3
Cc1c(Cl)cccc1NC(=O)CSc1nncn1-c1ccccn1 | 15.8
Cc1ccccc1C(=O)NCC(=O)NNC(=S)NC(=O)c1ccccc1C | 9.81
CN(C)/C=N/NC(=O)C1Cc2c(ccc3ccccc23)O1 (stereo not drawn) | 7.51
COc1ccc(/C=N/NC(=O)c2[nH]nc3c2CCc2ccccc2-3)cc1OC | 11.4

SMILES | hERG current change (%, negative = inhibition) at 1uM [%]
Cc1[nH][nH]c(=O)c1C=NCc1ccc(Cl)cc1 | 14.5
Clc1ccc(OCCCc2nc(-c3ccncc3)no2)c(Cl)c1 | 11.4
CC1(OC(=O)CCc2ccccc2)C(=O)C=C2C=C(c3ccc(C#N)cc3)N(C3CCCC3)C=C2C1=O (stereo not drawn) | 7.68
COc1ccccc1C(=O)Nc1ccc(C2=NNC(=O)CC2C)cc1 (stereo not drawn) | 12.7
O=C(CSc1nnc(NC(=O)C2CCC2)s1)Nc1ccccc1 | 13.3
Cc1nc2ccc3nc(NC(=O)C4COc5ccccc5O4)sc3c2s1 (stereo not drawn) | 7.62
CC(=O)Nc1ccc(OC(=O)c2ccc(Br)c([N+](=O)[O-])c2)cc1 | 11.8
CCN1CCN(C(=O)c2ccc(COc3ccc(Cl)cc3)o2)CC1 | -20
N#C/C(=C(/O)c1ccco1)c1nc2ccccc2s1 | 10.4
CC(C)C(NC(=O)C(NC(=O)C1OC2OC(C)(C)OC2C2OC(C)(C)OC12)C(C)C)C(=O)O (stereo not drawn) | 12.3
Cc1oc(-c2ccccc2Cl)nc1CS(=O)(=O)CC(=O)N1CCOCC1 | -3.97
CCc1ccc(OCC(=O)NNC(=O)CNC(=O)c2ccc(Br)o2)cc1 | 4.23
Cc1ccccc1-n1c(SCC(=O)N2CCCCC2)nc(O)cc1=O | 18.7
CC(NC(=O)c1ccccc1Br)C1CC2CCC1C2 (stereo not drawn) | 12.6
O=C(NC1CCCCC1)c1ccc2snnc2c1 | 12.8
Cc1cccc(NC(=O)C2CCCC2)c1 | 4.32
CN(C)c1nc(OCCNC(=O)Nc2ccccc2)nc(N(C)C)n1 | 12.2
O=C(COC(=O)C1CC2C=CC1C2)NCc1ccc(F)cc1 (stereo not drawn) | 9.12
Cc1nc(=O)c(-c2ccccc2)c(C)n1-c1ccccc1 | 16.6
Cc1ccc(NS(=O)(=O)c2ccc(OCC(=O)N3CCOCC3)cc2)cc1 | 3.02
COCCn1c(SCC(=O)Nc2nc(C)c(Cl)cc2Cl)nc2ccccc21 | -0.266
CC1CCN(C(=O)N2c3ccccc3Sc3ccccc32)CC1 | 4.18

SMILES | hERG current change (%, negative = inhibition) at 1uM [%]
CC1CCCN(C(=O)c2ccc3c(c2NCCO)C(=O)c2ccccc2C3=O)C1 (stereo not drawn) | -2.57
Oc1ccccc1N1CCN(C(=S)NCCc2ccccc2)CC1 | 4.72
COc1cc(CCC(=O)Nc2cnc3ccccc3c2)cc(OC)c1OC | 2.31
O=C(COC(=O)c1cccc(C(=O)OCC(=O)c2ccc(Br)cc2)n1)c1ccc(Br)cc1 | 6.91
CSCC[C@H](NC(=O)C1CCC(CNC(=O)[C@@H]2CCCN2C(=O)OC(C)(C)C)CC1)C(=O)O (stereo partly drawn) | 4.54
CC(C)(C)Sc1ccc(N)nc1.Cl | 10
O=C(Nc1ccsc1C(=O)NC1CCCCC1)c1ccccc1 | 11.3
CCC(C)N1C(=O)/C(=C\c2ccc(N3CCCCCC3)cc2)C(=O)NC1=S (stereo not drawn) | 6.54
COc1cc(NC(=O)COC(=O)Cc2ccsc2)cc(OC)c1 | 7.2
COc1ccc(C2(C)NC(=O)N(CC(=O)Nc3ccc4c(c3)OCO4)C2=O)cc1OC (stereo not drawn) | 1.57
CC12CCC(=O)N1C(C(=O)N1CCN(S(=O)(=O)c3cccc(C(F)(F)F)c3)CC1)CS2 (stereo not drawn) | 8.04
CC1CCC(NC(=O)CN2CCN(S(=O)(=O)c3cccs3)CC2)CC1 (stereo not drawn) | 1.76
O=C(Nc1ccc(F)cc1)Nc1cc(OCC(F)(F)F)cc(OCC(F)(F)F)c1 | 6.79
O=C(NC1CCCCC1)C(c1cccnc1)N(C(=O)c1csnn1)c1ccccc1F (stereo not drawn) | 11.6
CCN1CCCC(CO)(Cc2ccccc2)C1 (stereo not drawn) | 4.17
Cc1ccc(C)c(NS(=O)(=O)c2c(C)[nH]c(C)c2C(=O)N2CCCCC2)c1 | -4.64
Cc1cccc(C)c1OCc1n[nH]c(=S)n1N | 14.4
Cc1cc(Cl)ccc1OC(C)C(=O)Nc1ccccc1N1CCOCC1 (stereo not drawn) | 5.37
COc1ccc(Cn2cc([N+](=O)[O-])nc2C)cc1[N+](=O)[O-] | 10.3
Cc1ccc(S(=O)(=O)CCC(=O)Nc2nnc(-c3cccs3)o2)cc1 | 3.24
Cc1ccc2cc3cc(C(=O)N4CC(C)CC(C)C4)oc3nc2c1 (stereo not drawn) | 1.87
